Measured values published in patent US20170210809A1 (DYAX, published 2017).

Tests used:
Experiment in all cases: cell-based or functional assay
[1] = target: T1, IGF-1R (insulin-like growth factor 1 receptor) on tumor cells (human, UniProt P08069 31-1367)
[2] = target: T1, IGF-1R (insulin-like growth factor 1 …); remark: listed apart in the source
[3] = target: T2, ErbB3 (HER3) on tumor cells (human, UniProt P21860 20-1342)
[4] = target: T2, ErbB3 (HER3) on tumor cells; remark: listed apart in the source
T2 sequence (P21860 20-1342): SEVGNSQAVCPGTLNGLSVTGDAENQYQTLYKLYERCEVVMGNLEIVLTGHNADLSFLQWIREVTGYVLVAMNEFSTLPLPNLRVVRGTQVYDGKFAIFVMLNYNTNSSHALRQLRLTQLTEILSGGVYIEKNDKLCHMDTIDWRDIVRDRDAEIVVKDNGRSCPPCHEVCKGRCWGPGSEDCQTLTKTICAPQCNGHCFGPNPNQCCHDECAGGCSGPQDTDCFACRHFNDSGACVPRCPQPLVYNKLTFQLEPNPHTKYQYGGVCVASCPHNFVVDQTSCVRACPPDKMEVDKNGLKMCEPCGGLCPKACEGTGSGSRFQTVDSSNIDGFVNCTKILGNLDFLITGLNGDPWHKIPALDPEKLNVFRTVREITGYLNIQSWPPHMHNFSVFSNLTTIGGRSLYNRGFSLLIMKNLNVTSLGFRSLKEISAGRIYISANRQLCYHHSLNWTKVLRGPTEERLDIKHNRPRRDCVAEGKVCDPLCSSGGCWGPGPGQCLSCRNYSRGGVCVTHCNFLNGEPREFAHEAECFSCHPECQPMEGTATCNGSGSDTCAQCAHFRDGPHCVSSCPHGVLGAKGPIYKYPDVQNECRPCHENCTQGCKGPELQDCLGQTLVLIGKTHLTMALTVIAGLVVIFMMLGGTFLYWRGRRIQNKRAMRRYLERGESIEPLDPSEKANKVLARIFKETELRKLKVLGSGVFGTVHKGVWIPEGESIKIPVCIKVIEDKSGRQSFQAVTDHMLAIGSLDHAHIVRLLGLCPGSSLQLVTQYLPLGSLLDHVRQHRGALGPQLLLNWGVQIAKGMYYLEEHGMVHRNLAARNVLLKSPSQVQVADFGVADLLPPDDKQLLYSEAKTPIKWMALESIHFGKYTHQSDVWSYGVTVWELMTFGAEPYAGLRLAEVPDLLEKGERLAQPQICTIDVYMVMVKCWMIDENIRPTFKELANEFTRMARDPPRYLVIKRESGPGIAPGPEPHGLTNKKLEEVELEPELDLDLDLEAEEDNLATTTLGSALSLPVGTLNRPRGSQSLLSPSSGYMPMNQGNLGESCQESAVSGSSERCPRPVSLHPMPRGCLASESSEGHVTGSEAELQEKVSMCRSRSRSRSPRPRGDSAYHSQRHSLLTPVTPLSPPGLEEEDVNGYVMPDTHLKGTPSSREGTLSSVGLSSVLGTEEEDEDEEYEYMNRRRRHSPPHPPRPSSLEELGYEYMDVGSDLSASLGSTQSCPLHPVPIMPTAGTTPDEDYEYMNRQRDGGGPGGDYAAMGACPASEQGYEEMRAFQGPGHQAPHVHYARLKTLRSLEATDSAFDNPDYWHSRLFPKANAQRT

[5] = target: T1, IGF-1R (insulin-like growth factor 1 …); remark: listed apart in the source
[6] = target: T1, IGF-1R (insulin-like growth factor 1 …); remark: listed apart in the source

T1 sequence (P08069 31-1367): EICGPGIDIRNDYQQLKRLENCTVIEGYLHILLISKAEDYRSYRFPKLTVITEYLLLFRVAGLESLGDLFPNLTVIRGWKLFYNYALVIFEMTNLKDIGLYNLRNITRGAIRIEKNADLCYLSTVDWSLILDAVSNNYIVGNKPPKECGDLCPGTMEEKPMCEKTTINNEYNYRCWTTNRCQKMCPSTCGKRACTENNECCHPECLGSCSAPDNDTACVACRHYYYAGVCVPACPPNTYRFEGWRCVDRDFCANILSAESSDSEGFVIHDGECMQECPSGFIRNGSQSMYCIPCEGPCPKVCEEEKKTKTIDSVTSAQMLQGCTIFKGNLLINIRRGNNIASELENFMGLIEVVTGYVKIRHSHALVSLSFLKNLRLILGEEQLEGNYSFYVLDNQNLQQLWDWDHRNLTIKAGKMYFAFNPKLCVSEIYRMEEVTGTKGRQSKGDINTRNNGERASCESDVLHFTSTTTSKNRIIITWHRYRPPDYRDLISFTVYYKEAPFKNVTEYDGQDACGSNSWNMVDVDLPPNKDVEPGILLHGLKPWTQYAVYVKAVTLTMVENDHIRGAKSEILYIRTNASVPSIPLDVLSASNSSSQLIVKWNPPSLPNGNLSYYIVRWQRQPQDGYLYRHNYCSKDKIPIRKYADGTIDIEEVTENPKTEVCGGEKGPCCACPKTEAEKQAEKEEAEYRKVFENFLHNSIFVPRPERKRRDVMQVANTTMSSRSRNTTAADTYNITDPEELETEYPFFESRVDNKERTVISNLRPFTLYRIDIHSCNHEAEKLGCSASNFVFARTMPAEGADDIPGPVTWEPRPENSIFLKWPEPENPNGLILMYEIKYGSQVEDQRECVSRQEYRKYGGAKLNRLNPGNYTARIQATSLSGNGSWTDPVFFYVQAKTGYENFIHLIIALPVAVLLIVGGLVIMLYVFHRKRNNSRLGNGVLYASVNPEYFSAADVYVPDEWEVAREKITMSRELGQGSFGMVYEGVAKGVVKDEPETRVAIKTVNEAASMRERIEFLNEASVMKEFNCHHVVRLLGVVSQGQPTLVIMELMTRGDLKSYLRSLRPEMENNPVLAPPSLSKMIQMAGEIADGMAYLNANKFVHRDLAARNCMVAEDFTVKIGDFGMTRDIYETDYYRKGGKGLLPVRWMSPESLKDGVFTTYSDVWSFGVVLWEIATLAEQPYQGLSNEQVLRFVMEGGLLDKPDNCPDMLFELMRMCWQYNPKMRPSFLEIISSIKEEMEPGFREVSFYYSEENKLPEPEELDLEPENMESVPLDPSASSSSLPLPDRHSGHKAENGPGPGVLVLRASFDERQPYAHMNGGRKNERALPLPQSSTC

Row | Binder | Ki, inhibition of IGF2-induced pIGF-IR formation (ELISA, MCF7 cells) [1] [nM] | IC50, inhibition of IGF-1-induced pIGF-1R formation (ELISA, ADRr cells) [2] [nM] | Ki, inhibition of HRG-induced pErbB3 formation (ELISA, ADRr cells) [3] [nM] | Ki, inhibition of BTC-induced pErbB3 formation (ELISA, ADRr cells) [4] [nM] | Ki, inhibition of IGF2-induced pAKT formation (ELISA, MCF7 cells) [5] | Ki, inhibition of IGF-1-induced pAKT formation (ELISA, MCF7 cells) [6] [nM]
1 | AB2-21N/AB5-7C (bispecific antibody) EVQLLESGGGLVQPGGSLRLSCAASGFTFSVYDMYWVRQAPGKGLEWVSYIYSSGGDTDYADSVKGRFTISRDNSKNTLYLQMNSLRAEDTATYYCARASTNSIYDAMDVWGQGTTVTVSSASTGGGGSGGGGSGGGGSDIQMTQSPSSVSASVGDRVTITCRASQDITNWLAWYQQKPGKAPTLLIYDASTLQSGVPSRFSGSGSGTDFTLTISSLQPEDFATYFCQQANGFPLTFGGGTKVEIKGAAS[letters of about 600 residues left out]AAALQEVQLLESGGGLVQPGGSLRLSCAASGFTFSVYPMHWVRQAPGKGLEWVSSISSSGGATRYADSVKGRFTISRDNSKNTLYLQMNSLRAEDTAVYYCAKDFYDILTGNAFDIWGQGTMVTVSSASTGGGGSGGGGSGGGGSDIQMTQSPSSFSASTGDRVTITCRASQGISSYLAWYQQKPGKAPKLLIYAASTLQSGVPSRFSGSGSGTDFTLTISSLQPEDSATYYCQQYFTFPLTFGGGTKVEIK | 0.74 | 11 | 0.6 | 0.52 | 70 pM | 4
2 | AB2-6N/AB5-7C (bispecific antibody) EVQLLESGGGLVQPGGSLRLSCAASGFTFSHYVMAWVRQAPGKGLEWVSSISSSGGWTLYADSVKGRFTISRDNSKNTLYLQMNSLRAEDTAVYYCTRGLKMATIFDYWGQGTLVTVSSASTGGGGSGGGGSGGGGSQSALTQPASVSGSPGQSITISCTGTSSDVGSYNVVSWYQQHPGKAPKLIIYEVSQRPSGVSNRFSGSKSGNTASLTISGLQTEDEADYYCCSYAGSSIFVIFGGGTKVTVLGAAS[letters of about 600 residues left out]AAALQEVQLLESGGGLVQPGGSLRLSCAASGFTFSVYPMHWVRQAPGKGLEWVSSISSSGGATRYADSVKGRFTISRDNSKNTLYLQMNSLRAEDTAVYYCAKDFYDILTGNAFDIWGQGTMVTVSSASTGGGGSGGGGSGGGGSDIQMTQSPSSFSASTGDRVTITCRASQGISSYLAWYQQKPGKAPKLLIYAASTLQSGVPSRFSGSGSGTDFTLTISSLQPEDSATYYCQQYFTFPLTFGGGTKVEIK | 4.1 | 6 | 1.1 | 6.5 |  | 14
3 | AB2-3N/AB5-7C (bispecific antibody) EVQLLESGGGLVQPGGSLRLSCAASGFTFSAYNMRWVRQAPGKGLEWVSVIYPSGGATRYADSVKGRFTISRDNSKNTLYLQMNSLRAEDTAVYYCARGYYYYGMDVWGQGTLVTVSSASTGGGGSGGGGSGGGGSQSVLTQPPSASGTPGQRVTISCSGSDSNIGRNYIYWYQQFPGTAPKLLIYRNNQRPSGVPDRISGSKSGTSASLAISGLRSEDEAEYHCGTWDDSLSGPVFGGGTKLTVLSGAAS[letters of about 600 residues left out]AAALQEVQLLESGGGLVQPGGSLRLSCAASGFTFSVYPMHWVRQAPGKGLEWVSSISSSGGATRYADSVKGRFTISRDNSKNTLYLQMNSLRAEDTAVYYCAKDFYDILTGNAFDIWGQGTMVTVSSASTGGGGSGGGGSGGGGSDIQMTQSPSSFSASTGDRVTITCRASQGISSYLAWYQQKPGKAPKLLIYAASTLQSGVPSRFSGSGSGTDFTLTISSLQPEDSATYYCQQYFTFPLTFGGGTKVEIK | 14 | 27 | 28 | 14.2 | 14.1 nM | 40

Further lines, results first:

Row | Ki, inhibition of IGF2-induced pIGF-IR formation (ELISA, MCF7 cells) [1] [nM] | IC50, inhibition of IGF-1-induced pIGF-1R formation (ELISA, ADRr cells) [2] [nM] | Ki, inhibition of HRG-induced pErbB3 formation (ELISA, ADRr cells) [3] [nM] | Ki, inhibition of BTC-induced pErbB3 formation (ELISA, ADRr cells) [4] [nM] | Ki, inhibition of IGF2-induced pAKT formation (ELISA, MCF7 cells) [5] | Ki, inhibition of IGF-1-induced pAKT formation (ELISA, MCF7 cells) [6] [nM] | Binder
4 | 0.27 | 11 | 1.2 | 0.56 |  |  | AB5-7N/AB2-21C (bispecific antibody) EVQLLESGGGLVQPGGSLRLSCAASGFTFSVYPMHWVRQAPGKGLEWVSSISSSGGATRYADSVKGRFTISRDNSKNTLYLQMNSLRAEDTAVYYCAKDFYDILTGNAFDIWGQGTMVTVSSASTGGGGSGGGGSGGGGSDIQMTQSPSSFSASTGDRVTITCRASQGISSYLAWYQQKPGKAPKLLIYAASTLQSGVPSRFSGSGSGTDFTLTISSLQPEDSATYYCQQYFTFPLTFGGGTKVEIKGAAS[letters of about 600 residues left out]AAALQEVQLLESGGGLVQPGGSLRLSCAASGFTFSVYDMYWVRQAPGKGLEWVSYIYSSGGDTDYADSVKGRFTISRDNSKNTLYLQMNSLRAEDTATYYCARASTNSIYDAMDVWGQGTTVTVSSASTGGGGSGGGGSGGGGSDIQMTQSPSSVSASVGDRVTITCRASQDITNWLAWYQQKPGKAPTLLIYDASTLQSGVPSRFSGSGSGTDFTLTISSLQPEDFATYFCQQANGFPLTFGGGTKVEIK
5 | 2.3 | 3 | 3 | 5.4 | 1.9 nM | 6 | AB5-7N/AB2-6C (bispecific antibody) EVQLLESGGGLVQPGGSLRLSCAASGFTFSVYPMHWVRQAPGKGLEWVSSISSSGGATRYADSVKGRFTISRDNSKNTLYLQMNSLRAEDTAVYYCAKDFYDILTGNAFDIWGQGTMVTVSSASTGGGGSGGGGSGGGGSDIQMTQSPSSFSASTGDRVTITCRASQGISSYLAWYQQKPGKAPKLLIYAASTLQSGVPSRFSGSGSGTDFTLTISSLQPEDSATYYCQQYFTFPLTFGGGTKVEIKGAAS[letters of about 600 residues left out]AAALQEVQLLESGGGLVQPGGSLRLSCAASGFTFSHYVMAWVRQAPGKGLEWVSSISSSGGWTLYADSVKGRFTISRDNSKNTLYLQMNSLRAEDTAVYYCTRGLKMATIFDYWGQGTLVTVSSASTGGGGSGGGGSGGGGSQSALTQPASVSGSPGQSITISCTGTSSDVGSYNVVSWYQQHPGKAPKLIIYEVSQRPSGVSNRFSGSKSGNTASLTISGLQTEDEADYYCCSYAGSSIFVIFGGGTKVTVL
6 | 16.8 | 28 | 37 | 23 |  | 25 | AB5-7N/AB2-3C (bispecific antibody) EVQLLESGGGLVQPGGSLRLSCAASGFTFSVYPMHWVRQAPGKGLEWVSSISSSGGATRYADSVKGRFTISRDNSKNTLYLQMNSLRAEDTAVYYCAKDFYDILTGNAFDIWGQGTMVTVSSASTGGGGSGGGGSGGGGSDIQMTQSPSSFSASTGDRVTITCRASQGISSYLAWYQQKPGKAPKLLIYAASTLQSGVPSRFSGSGSGTDFTLTISSLQPEDSATYYCQQYFTFPLTFGGGTKVEIKGAAS[letters of about 600 residues left out]AAALQEVQLLESGGGLVQPGGSLRLSCAASGFTFSAYNMRWVRQAPGKGLEWVSVIYPSGGATRYADSVKGRFTISRDNSKNTLYLQMNSLRAEDTAVYYCARGYYYYGMDVWGQGTLVTVSSASTGGGGSGGGGSGGGGSQSVLTQPPSASGTPGQRVTISCSGSDSNIGRNYIYWYQQFPGTAPKLLIYRNNQRPSGVPDRISGSKSGTSASLAISGLRSEDEAEYHCGTWDDSLSGPVFGGGTKLTVLS
